Results published in ChEMBL document CHEMBL4888484, “Replenishing the malaria drug discovery pipeline: Screening and hit evaluation of the MMV Hit Generation Library 1 (HGL1) against asexual blood stage Plasmodium falciparum ,using a nano luciferase reporter read-out” (2022).
Out of some 150,000 compounds screened, about 540 (0.36%) showed an effect of 50% or more. Some of the results follow.

system: Plasmodium falciparum; assay: Primary screen in NF54 nanoGlo assay, in single point, at 2uM, 72h; a lower Z score goes with more inhibition; format: functional, Erythrocyte; details: timepoint 72 hour

SMILES | % Inhibition | Z score
C#CCNC(=O)C12CC(CN1Cc1ccccc1)C2 | -14% | 1.88
Cc1ccc(S(=O)(=O)N2CCN(S(=O)(=O)c3ccc(C)cc3)C2c2ccc(N(C)C)cc2)cc1 | -12% | 2.24
O=C(C1CCCC1)N1CC2CC=CCC2C1 (stereo not given) | -7% | 0.77
CC(C)Cc1nc(C(=O)N2CC(O)CC2c2ccccc2)cs1 (stereo not given) | -18% | 2.87
Cc1nc(N2CCCC2)nc(NCCN2CCC[C@H](CO)C2)c1C | 2% | -0.36
CC[C@@H](C(=O)Nc1cccc(Cl)c1)N(C)C | -13% | 1.75
Cc1n[nH]c(C(=O)NC[C@@H](CO)Cc2ccco2)c1Cl | -14% | 1.34
CN(C)c1nc(N)nc(CNC(=O)CC[C@@H]2CCCN3CCCC[C@H]23)n1 | -8% | 1.04
CCO[C@H]1C[C@H](Nc2ncnc3ccc(F)cc23)C1 | -14% | 2.66
COc1ccc(-c2cc(C(F)(F)F)nc(N3CCC(C)CC3)n2)cc1OC | -17% | 1.62
COCC(C)(C)CNc1nc(N)nc(C)c1Cl | -10% | 1.69
CCn1nccc1-c1cccc(-c2noc(-c3ccc(C)c(C)c3)n2)c1 | -3% | 0.33
O=C(c1cc2n(n1)CCC2)N1CCC(c2nc3ccccc3s2)CC1 | -15% | 1.57
COCCc1nc2c(c(N3CCN(c4cc(C)ccc4C)CC3)n1)CCOCC2 | -9% | 0.84
Cc1ccc(CNC(=O)c2nc(N3CCCCC3)c3c(C)c(C)n(-c4ccccc4)c3n2)o1 | -13% | 2.01
C[C@@H](C(=O)NC1CCCC1)S(=O)(=O)Cc1ccc(Cl)s1 | -4% | 0.79
Cc1cncc(C(=O)N(Cc2noc(C)n2)C(C)C)c1 | 2% | -0.22
CN(c1ccccc1)c1ncc(C(=O)O)s1 | -8% | 1.06
COc1ccc(Cl)c2c(O)c(CN(C)C3CCCCC3)c(C)nc12 | -8% | 1.1
COCc1nc(CNC(=O)N2CCC[C@H](C3CCCC3)C2)cs1 | -3% | 0.31
Cc1nc(-c2cccc(CO)c2)c2cnn(C)c2n1 | -13% | 2.21
Cc1cccc(-c2cn([C@@H](Cn3ccnc3)C(C)(C)C)nn2)n1 | -13% | 2.23

SMILES | % Inhibition | Z score
O=C(Nc1ccccc1)C1C(=O)NC2(c3ccccc3)CC1c1ccccc1O2 (stereo not given) | 2% | -0.2
Cc1ccc(F)cc1-c1nnc(NS(=O)(=O)c2ccccc2)o1 | 0% | 0.05
NC(=O)c1ncn([C@H]2CCCN(Cc3ncccc3Cl)C2)n1 | 7% | -1.15
CCCNC(=O)c1nc(N2CCCC2)c2ccccc2n1 | -8% | 1.24
Cc1cccnc1-n1nc(C(C)C)nc1[C@H]1CC(=O)N(c2cccc(O)c2)C1 | -6% | 1.12
CC(=O)NCc1ccc(-c2cc(NC3CCCC3)nc3[nH]ccc23)nc1 | -10% | 1.14
Cc1c([C@H](C)NCc2ccc(NC(=O)c3ccc(F)cc3)cc2)cnn1C(C)C | 1% | -0.09
O=C(c1cccc(F)c1)N1CCOc2ccc(CN3CCCC3)cc2C1 | -10% | 1.09
CNc1cc(C)nc(/C=C/C2CCCCC2)n1 | 1% | -0.14
O=C(OC1CCCCC1)C1CCN(S(=O)(=O)c2ccc(Cl)cc2)CC1 | -9% | 1.29
CCS(=O)(=O)N1CC[C@H](c2ncc(C)n2CCCOC)C1 | 1% | -0.1
CC(=O)N1CCC(NC(=O)c2ccc(Cl)o2)CC1 | -2% | 0.35
O=C(OCc1nc(-c2ccncc2)no1)c1ccc(F)cn1 | -5% | 0.51
O=C(Cc1cccs1)Nc1nnc(C2CCCCC2)o1 | -17% | 1.97
CCc1cnc(NC(=O)c2c[nH]c(C)n2)o1 | -11% | 1.71
Cc1ccc(C(=O)NC2CCCCCC2)c(=O)[nH]1 | -8% | 0.99
O=C1CNC(=O)N1c1cccc(NS(=O)(=O)c2ccccc2)c1 | -3% | 0.56
Cc1ccc(Br)c(NC(=O)N(C)CC(C)(CO)CO)c1 | -11% | 1.77
O=S(=O)(CC1CCCC1)NCCc1nccs1 | -2% | 0.19
Nc1cc(-c2ncnn2C2Cc3ccccc3C2)ccn1 | -11% | 2.08
CCCNC(=O)[C@@H]1CCCC[C@@H]1C(=O)Nc1ccc(NC(=O)C(C)(C)C)c(C)c1 | 1% | -0.21
Cn1cccc1C(=O)Nc1cccc(-n2ncc(C(=O)O)c2C(F)(F)F)c1 | -10% | 1.11

SMILES | % Inhibition | Z score
Cc1cc(F)ccc1N1C[C@]23C=C[C@H](O2)C(C(=O)N2CCN(C(C)C)CC2)C3C1=O (stereo not given in full) | -1% | 0.14
CCCn1ncc(C(=O)N[C@H]2CCS(=O)(=O)C2)c1C1CC1 | -1% | 0.22
CC1(C)CCc2nc(NC(=O)[C@@H]3CCC(=O)N3)sc2C1 | -3% | 0.44
O=C(CN1CCC2(CC1)NC(c1ccc(OC(F)(F)F)cc1)=NO2)NCc1ccc(F)cc1 | 31% | -4.22
COc1ccc(-c2cc(N(C)C(=O)C(C)C)n[nH]2)cc1 | -8% | 1.22
Cc1nccn1-c1cc(CNC(=O)C2CCCCC2)ccn1 | -10% | 2.03
CN(C)C(=O)CN1CCN(Cc2c[nH]nc2-c2cccc3ccccc23)CC1 | -16% | 1.71
O=C(NCC1(N2CCCC2)CCOCC1)c1ccc2nc(C(F)(F)F)cn2c1 | -1% | 0.16
CC(C)N1C[C@@H]2OCC(=O)N(CC3CCCCC3)[C@@H]2C1 | -13% | 1.69
CCN(CC)S(=O)(=O)c1ccc2c(c1)N(CC(=O)N1CCCCCC1)C(=O)CO2 | -15% | 1.91
O=C(NCCc1nnc2ccccn12)c1cc(-c2cccnc2)n[nH]1 | -12% | 1.57
COc1ccc(C)cc1NC(=O)CCc1c(C)nn(-c2ccc3nncn3n2)c1C | -8% | 0.97
O=C(Nn1cc(C(=O)Nc2ccc(F)cc2Cl)c2ccccc2c1=O)c1cnccn1 | 13% | -1.89
Cn1nc(C(=O)Nc2ccc3c(c2)CCC3)ccc1=O | -15% | 2.37
Cc1noc(CNC(=O)Cc2cccc(Br)c2)n1 | 5% | -0.98
CCC(=O)Nc1c(C)noc1/C=C\c1ccc(S(=O)(=O)Nc2ccc(F)c(F)c2)cc1 | -20% | 2.76
COc1cc(Cl)cc2cc(C(=O)N(C)CCC[C@H]3CCCO3)oc12 | -3% | 0.62
Cc1cc(=O)n(CC(=O)NCc2ccc(F)cc2)c(N2CCCCC2)n1 | -21% | 2.21
O=C(c1nccnc1C(=O)N1CCc2ccccc2C1)N1CCCCC1 | -8% | 1.6
CCn1c(C)ccc(C(=O)NC2(Cc3ccccc3C)CC2)c1=O | 2% | -0.25
Cc1cccc(NC(=O)[C@@H]2CCCN2C(=O)OC(C)(C)C)c1C | -2% | 0.35
CN(C(=O)[C@H]1CC12CCCCC2)c1nncs1 | -12% | 1.93

SMILES | % Inhibition | Z score
CCc1n[nH]c(=O)c2cc(S(=O)(=O)N3CCN(c4cccc(C)c4)CC3)cn12 | 2% | -0.39
O=C(CN1CCCCC1=O)Nc1ccccc1CN1CCCCC1 | -4% | 0.6
O=C(CN1CCS(=O)(=O)CC1)N1CCc2ccccc2C1 | -11% | 1.53
CCN(CC(=O)N1CCCNC(=O)[C@@H]1C)c1ccccc1 | -10% | 1.27
CCn1cc(C)c(C(=O)O)c1CC(=O)NCCc1ccc(Cl)cc1 | -13% | 1.77
CCOC(=O)[C@H]1CCCN(C(=O)c2cc3n(n2)CCN(Cc2ccc(Cl)c(Cl)c2)C3=O)C1 | -1% | 0.08
CC(C)c1nccn1Cc1nc2cc(F)ccc2o1 | -10% | 1.32
CC(C)(C)OC(=O)N1CC(C)(C)C(C(=O)O)C(C)(C)C1 | -2% | 0.28
c1ccc(CC2(c3nc(-c4cnccn4)no3)CCC2)cc1 | 13% | -2.33
Cc1ccccc1[C@H]1CCCN(C(=O)c2n[nH]c(N)c2Cl)C1 | 13% | -2.49
CCOC(=O)c1cnc2ccc(OC)cc2c1NCCc1nc2ccccc2n1-c1c(C(=O)OCC)cnc2ccc(OC)cc12 | -6% | 1.12
COc1ccc(-c2cc(C(=O)NCc3cccs3)sn2)cc1 | -11% | 1.4
CCC(=O)N1CCc2cc(Br)c(S(=O)(=O)CCC(=O)Nc3cccc(C(C)=O)c3)cc21 | -2% | 0.21
CCn1cc(CN(C)C(=O)[C@@H]2CC(F)(F)CN2C2CN(S(C)(=O)=O)C2)c(C)n1 | -7% | 0.78
COC1CCN(C(=O)Cc2ccc(-c3ccccc3)cc2)CC1 | 8% | -1.38
Cc1cc(C(=O)NCCc2cnn(C)c2)cc2sc(N)nc12 | -3% | 0.42
COc1ccc([C@H]2C(=O)N(CCc3ccccc3)CC(=O)N2Cc2ccc(Cl)cc2)cc1 | -1% | 0.16
Cc1ncc(C(=O)N(C)Cc2ccsc2)cn1 | -14% | 1.46
CC(=O)NCC(=O)N1CCCCC[C@H]1c1noc(-c2ccccc2)n1 | 7% | -0.85
